Data published in PubChem BioAssay AID1645882 (National Center for Advancing Translational Sciences (NCATS), 2021).
The whole screen tested about 16,000 compounds, of which about 120 (0.75%) were called active. Inconclusive results (about 4%) are left out. Calls come from the whole dose curve; as a rule, active = well fitted inhibition curve with a large enough effect; inconclusive = small, poorly fitted or top-dose-only effect; inactive = no such curve, though single readings can be large or run the other way. The list shows a part of the results.

Target: Rap guanine nucleotide exchange factor 3 (Homo sapiens) (UniProt O95398)
Assay: Validation qHTS for antagonist of cAMP-regulated guanine nucleotide exchange factor 3 (EPAC1);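 note: plate controls were DMSO for no effect and ATA control for full effect; nearly all actives have a fitted effect of over 75% in size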
Conditions: EPAC1 Rap1B-BODIPY-GDP exchange, fluorescence; series mostly up to 150 µM; activity change, negative = inhibition: at the top concentration
Outline: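 EPAC1 (100 nM) mixed with 250 nM RAP1B-BODIPY-GDP and 50 uM GDP; compounds in concentration series, 5 min at room temperature. Fluorescence (ex 480/em 540 nm) read every 5 min for 30 min; normalized to ATA control and DMSO.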

UniProt O95398, sequence (O95398 whole entry, looked up): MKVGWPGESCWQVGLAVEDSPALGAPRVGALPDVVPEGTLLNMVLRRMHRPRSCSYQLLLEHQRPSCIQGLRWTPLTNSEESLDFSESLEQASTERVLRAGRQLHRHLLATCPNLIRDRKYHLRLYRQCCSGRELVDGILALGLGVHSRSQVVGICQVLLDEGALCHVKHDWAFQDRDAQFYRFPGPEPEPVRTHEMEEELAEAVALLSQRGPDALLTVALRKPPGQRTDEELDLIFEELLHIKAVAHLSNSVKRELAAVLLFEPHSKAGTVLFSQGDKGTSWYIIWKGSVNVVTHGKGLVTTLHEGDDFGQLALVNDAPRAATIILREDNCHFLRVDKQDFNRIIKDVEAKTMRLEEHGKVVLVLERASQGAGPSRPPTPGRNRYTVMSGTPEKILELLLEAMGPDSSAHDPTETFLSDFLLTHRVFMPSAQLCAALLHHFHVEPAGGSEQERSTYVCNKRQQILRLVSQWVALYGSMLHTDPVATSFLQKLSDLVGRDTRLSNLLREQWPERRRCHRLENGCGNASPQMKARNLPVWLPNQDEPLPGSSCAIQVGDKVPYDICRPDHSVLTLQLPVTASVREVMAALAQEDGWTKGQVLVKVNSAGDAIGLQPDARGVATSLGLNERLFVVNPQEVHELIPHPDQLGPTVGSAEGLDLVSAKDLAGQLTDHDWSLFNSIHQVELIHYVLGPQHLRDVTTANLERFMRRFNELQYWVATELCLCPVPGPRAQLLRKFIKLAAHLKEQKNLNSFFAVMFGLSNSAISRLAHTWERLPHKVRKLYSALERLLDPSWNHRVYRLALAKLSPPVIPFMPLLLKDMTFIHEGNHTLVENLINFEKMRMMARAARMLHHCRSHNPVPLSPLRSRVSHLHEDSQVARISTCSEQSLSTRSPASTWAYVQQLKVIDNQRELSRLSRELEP

Activity change, negative = inhibition, inactive:
Oc1cccc2c(CC(O)c3c[nH]c4ccccc34)ccnc12 (configuration not stated) -20.5%
O=C(O)C1CN(CCCP(=O)(O)O)CCN1 (configuration not stated) 1.24% [at 75.8 µM]
Cc1noc(C)c1C(=O)N1CCC2(CCCN(c3ccncc3)C2)CC1 12.2%
CCOC(N)=O 17%
O=C(c1ccncc1)N1CCC2(CC1)CN(c1ccccn1)C2 4.88%
CO[C@@]1(NC(=O)CSCC#N)C(=O)N2C(C(=O)O)=C(CSc3nnnn3C)CSC21 (some centres not stated) 14.1%
COc1ccc(CN2CCCC(c3nc(C)ncc3-c3ccc(F)cc3)C2)c(OC)c1OC (configuration not stated) 0.378%
CCn1c(-c2cccnc2)nc2cc(NC(=O)COC)cc(C(=O)N3CCc4ccccc4C3)c21 6.82%
O=C1c2cccc(O)c2C(=O)c2c(O)cccc21
COCCn1c(=O)c(-c2ccc(OC)cc2)nc2cnc(OCc3ccccc3)nc21 21.2%
Cc1ncc2c(c1CNC(=O)c1cncs1)CCN(C(=O)c1csc(-c3cccs3)n1)C2 24.5%
Cc1ccc(C)c(CN2CCC3(CCC(CNC(=O)c4ccnn4C)O3)CC2)c1 (configuration not stated) 12.1%
COCCCOc1ccnc(CS(=O)c2nc3ccccc3[nH]2)c1C (configuration not stated) 25.6%
CCOC(=O)N1CCN(Cc2ccc3c(c2)CN(C(=O)c2ccc(C#CC(C)(C)O)o2)CCO3)CC1 11.1%
CC(=O)N=c1sc(S(N)(=O)=O)nn1C
O=c1cnc2cnc(Oc3ccccc3)nc2n1C[C@H]1CCCO1 13%
Cc1ncc2c(c1CNC(=O)CN1CCCCC1)CCN(C(=O)c1ccc(F)cc1Cl)C2 8.68%
O=C(C1CCCCC1)N1CCOc2ccc(CN3CCN(Cc4ccccn4)CC3)cc2C1 4.14%
CC(C)NNC(=O)c1ccncc1
Cc1[nH]c2c(C(=O)NCC3Cc4cccc(-c5cccnc5)c4O3)cccc2c1C (configuration not stated) 8.57%
COc1ccccc1CNC(=O)c1cnn(-c2nccc(-c3cccs3)n2)c1C -11.1%
COc1cccc(Nc2ncc3ncc(=O)n(Cc4cccs4)c3n2)c1 -19.5%
COc1ccccc1-c1cc(NCc2cccs2)ncn1 6.11%
O=C(O)c1cc(=O)c2ccccc2[nH]1
Cc1ccccc1-c1ccc2ncnc(N3CCNCC3)c2c1 22.4%
O=C(NCCNC[C@@H](O)COc1ccc(O)cc1)N1CCOCC1 3.33%
O=C1c2ccccc2C(=O)c2cc(Cn3cc(-c4cccc(C(F)(F)F)c4)nn3)ccc21 -13.3%
CC(=O)O[C@@H]1CC2C(C)(C)C(=O)C=C[C@]2(C)C2CC[C@]3(C)C(=CC[C@H]3C3CO[C@@H](C(C)(C)O)[C@H](O)C3)[C@@]21C (some centres not stated) 17.5%
COCC(=O)Nc1cc(C(=O)N2CCc3ccccc3C2)c2c(c1)nc(-c1ccncc1)n2C 14.4%
N[C@H](C(=O)O)c1ccc(C(=O)O)c(O)c1
C[C@H](NCCc1ccc(O)cc1)[C@H](O)c1ccc(O)cc1 4.22%
CCCCN1CCC[C@@H]1CNC(=O)c1cc(C#N)c2ccccc2c1OC -15.6%
COCc1c(C(=O)NC2CCCC2)cnn1-c1nccc(-c2cccs2)n1 8.17%
CC(C)NC(=O)N1CCC2(CC1)CCN(C(=O)c1csnn1)CC2 16.6%
COc1ccc(C[C@@H](C)NC[C@H](O)c2ccc(O)c(NC=O)c2)cc1 9.6%
O=C(CCCN1CCC(n2c(=S)[nH]c3ccccc32)CC1)c1ccc(F)cc1 21.9%
C#CC1(O)CC[C@H]2[C@@H]3CCC4=CCCC[C@@H]4[C@H]3CC[C@@]21C (some centres not stated) -22.1% [at 75.8 µM]
COC(=O)[C@@H]1CCCN1Cc1ccc2c(c1)CN(Cc1ccc3c(c1)CCO3)CCO2 5.94%
COc1ncc2nc(-c3cccs3)c(=O)n(CCC#N)c2n1 -1.38%
C=CCNc1ncnc2ccc(Br)cc12 12.2% [at 75.8 µM]
COc1ccc(CNc2ncncc2-c2ccccc2C)c(OC)c1 2.5%
CC(=O)Oc1ccc(C2(c3ccc(OC(C)=O)cc3)Oc3ccccc3NC2=O)cc1 -0.533%
COc1cccc(-c2ccc(O)c(CNCc3cccc4ccccc34)c2)n1 6.13%
COc1cccc(C2(CC(=O)N3CCC(c4nc5ccc(F)cc5[nH]4)CC3)CC(=O)N(C)C2=O)c1 (configuration not stated) 13.6%
CC(CN1CCc2nnc(CNC(=O)c3cccc(F)c3)n2CC1)c1ccccc1 (configuration not stated) 7.93%
COc1ncc2nc(CCc3ccccc3)c(=O)n(Cc3cccs3)c2n1 3.4%
CCOC(CN1CCN(CC(C)C(=O)c2ccccc2)CC1)c1ccccc1 (configuration not stated) 10.5%
OCC(CO)N[C@H]1C[C@](O)(CO)[C@@H](O)[C@H](O)[C@H]1O -2.1%
CC(C)[C@H]1COCCS(=O)(=O)N1Cc1ccc(Cl)cc1 7.68%
CCNc1ncc2nc(-c3cccs3)c(=O)n(Cc3cccs3)c2n1 11.2%
COc1cccc2c1CCC1CC(=O)CC[C@@]21C (some centres not stated) -2.15%
O=c1[nH]cnc2[nH]cc(CN3CCCCC3)c12 11%
Cn1ccc(C(=O)NCC2CCC3(CCN(Cc4ccc(F)cc4F)CC3)O2)n1 (configuration not stated) 4.12%
CC(C)(Cc1c[nH]c2ccccc12)NCC(O)COc1ccccc1C#N (configuration not stated) 14.3%
O=C(NCC1Cc2cccc(-c3cccnc3)c2O1)c1cc(-c2ccccc2)n[nH]1 (configuration not stated) 5.87%
OC(CCN1CCCCC1)(c1ccccc1)c1ccccc1
CC(=O)[C@H]1[C@H](C#N)C[C@H]2[C@@H]3CC=C4C[C@@H](O)CC[C@]4(C)[C@H]3CC[C@@]21C -1.47% [at 201 µM]
Cc1ccc(Nc2nccc(N(C)c3ccc4c(C)n(C)nc4c3)n2)cc1S(N)(=O)=O 12.1%
O=C1CCN(CCc2ccccc2)CCN1[C@H](CSc1ccccc1)c1ccccc1 -7.86%
Cc1noc(C)c1C(=O)N1CCC2(CC1)CN(c1ncccn1)C2 13.8%
CCc1ccc(/C=C2/SC(=S)NC2=O)cc1 3.5% [at 75.8 µM]
COc1ccccc1CNc1ncnc2ccc(-c3ccc(N(C)C)cc3)cc12 21.1%
CN=C1C=CC(=C(c2ccc(N(C)C)cc2)c2ccc(N(C)C)cc2)C=C1 -11.5%
COc1ccc(-c2nc3cnc(Oc4cccc(Cl)c4)nc3n(C3CC3)c2=O)cc1 13.8%
O=S(=O)(NCc1nc(N2CCCC2)c2cc(Cl)ccc2n1)c1ccccc1OC(F)(F)F -4.38%
O=C1C[C@H]2C=CCc3cccc(c32)CN1Cc1ccc(Br)cc1 -11.3%
Cc1cc(N(C)C)cc(C)c1C=O 19.6%
